The other results are listed elsewhere or left out.
What follows are compounds tested on S. aureus RN4220 (assay: growth inhibition call (relative growth <= 0.2)). Conditions: 50 µM.

Growth inhibition call, inactive:
C[C@H]1CN([C@@H](C)CO)C(=O)Cc2cc(NC(=O)Cc3ccccc3)ccc2O[C@H]1CN(C)C(=O)Nc1ccc(C(F)(F)F)cc1
CC1=C(C(=O)O)N2C(=O)[C@@H](NC(=O)[C@H](N)c3ccccc3)[C@H]2SC1
C[C@@H]1CCCCO[C@@H](CN(C)Cc2ccc(Cl)c(Cl)c2)[C@H](C)CN([C@@H](C)CO)C(=O)c2cc(NC(=O)NC3CCCCC3)ccc2O1
C[C@H]1CN([C@@H](C)CO)C(=O)c2cccc(NS(=O)(=O)c3cn(C)cn3)c2O[C@H]1CN(C)S(=O)(=O)c1cccs1
Nc1nc(=O)c2nc(Br)n([C@H]3O[C@H]4CO[PH](O)(O)O[C@@H]4[C@@H]3O)c2[nH]1
C[C@@H]1CCCCO[C@H](CN(C)CC2CCCCC2)[C@H](C)CN([C@@H](C)CO)C(=O)c2cc(NC(=O)c3ccccc3)ccc2O1
O=C(C[C@H]1CC[C@H](NC(=O)CN2CCOCC2)[C@H](CO)O1)NCCc1ccccc1
C[C@H]1CCCCO[C@@H](CN(C)S(=O)(=O)c2ccc(F)cc2)[C@@H](C)CN([C@@H](C)CO)C(=O)c2cc(NS(=O)(=O)c3cn(C)cn3)ccc2O1
Cc1noc(C)c1NC(=O)N(C)C[C@H]1Oc2ncc(C#CCC(C)C)cc2C(=O)N([C@H](C)CO)C[C@@H]1C
C[C@H]1CCCCO[C@H](CN(C)Cc2ccc(C(=O)O)cc2)[C@@H](C)CN([C@@H](C)CO)C(=O)c2cc(NC(=O)Nc3cccc4ccccc34)ccc2O1
Cn1c(Cl)cnc1CO
C[C@H]1CN([C@@H](C)CO)C(=O)Cc2cc(NC(=O)CCC(F)(F)F)ccc2O[C@H]1CN(C)S(=O)(=O)c1cccs1
Cc1ccc(S(=O)(=O)C[C@H](C)N2CCOCC2)c(S(=O)(=O)C[C@@H](C)N2CCOCC2)c1
NCCNC(=O)c1ccc(Cl)cn1
C[C@H](CO)N1C[C@H](C)[C@@H](CN(C)Cc2ccncc2)Oc2ccc(NS(=O)(=O)c3ccccc3)cc2CC1=O
C[C@@H]1CCCCO[C@@H](CN(C)Cc2ccccc2)[C@@H](C)CN([C@@H](C)CO)C(=O)c2cc(NS(=O)(=O)c3ccc(F)cc3)ccc2O1
CCS(=O)(=O)Nc1ccc2c(c1)C(=O)N(C)C[C@@H](OC)[C@@H](C)CN(Cc1nccs1)[C@H](C)CO2
CC(C)(O)c1ccccc1CCC(SCC1(CC(=O)[O-])CC1)c1cccc(C=Cc2ccc3ccc(Cl)cc3n2)c1.[Na+] (centres undefined)
OC[C@H]1O[C@@H](n2ncc3c(O)ncnc32)[C@H](O)[C@@H]1O
CC(C)NC(=O)N(C)C[C@@H]1Oc2ccc(NC(=O)NC3CCCCC3)cc2CC(=O)N([C@H](C)CO)C[C@@H]1C
COc1ccc(NC(=O)Nc2ccc3c(c2)C(=O)N([C@H](C)CO)C[C@@H](C)[C@@H](CN(C)C(=O)C2CCCCC2)OCCCC[C@@H](C)O3)cc1
C[C@@H]1CN([C@H](C)CO)C(=O)c2cccc(NS(=O)(=O)c3cn(C)cn3)c2O[C@@H]1CN(C)C(=O)NC1CCCCC1
Cc1cn([C@@H]2O[C@H](CO)[C@@H](O)[C@H]2O)c(=O)nc1N
C[C@H](CO)N1C[C@H](C)[C@H](CN(C)Cc2ccc(C(F)(F)F)cc2)Oc2c(NC(=O)Nc3ccc(C(F)(F)F)cc3)cccc2C1=O
O=C(C[C@@H]1CC=CCC[C@H](Cc2ccc(F)cc2)C(=O)OCCNC1=O)N[C@@H](CO)Cc1ccccc1
CC(C)(Oc1ccc(C2CC2(Cl)Cl)cc1)C(=O)O (centres undefined)
O=C1NCC[C@H]2[C@H]1N=C(N1CCCCC1)N2[C@H]1O[C@H](CO)[C@@H](O)[C@@H]1O
C[C@H]1CN([C@@H](C)CO)C(=O)c2cccc(NS(=O)(=O)c3cn(C)cn3)c2O[C@@H]1CN(C)C(=O)Nc1ccc2c(c1)OCO2
Cc1noc(C)c1S(=O)(=O)Nc1ccc2c(c1)C(=O)N([C@H](C)CO)C[C@H](C)[C@@H](CN(C)Cc1ccc(Cl)c(Cl)c1)OCCCC[C@H](C)O2

Reference: the antibiotic and cytotoxicity screens of Wong et al. (2023)
